# The supplement of paper PMC12217912
# This is one part of the list. The full chains were built here from the parent and the listed change. Inactive controls read about 0.05.
# B1: TEV protease; numbered along this chain (parent)
# chain: MGESLFKGPRDYNPISSSICHLTNESDGHTTSLYGIGFGPFIITNKHLFRRNNGTLVVQSLHGVFKVKDTTTLQQHLVDGRDMIIIRMPKDFPPFPQKLKFREPQREERICLVTTNFQTKSMSSMVSDTSCTFPSGDGIFWKHWIQTKDGQCGSPLVSTRDGFIVGIHSASNFTNTNNYFTSVPKNFMELLTNQEAQQWVSGWRLNADSVLWGGHKVFMVKPEEPFQPVKEATQL
# Variants of: B1
# Assay: raw area under fraction-flipped curve 0-4 h after induction (AUC4h, not background-subtracted), DNA-recorder readout of cleavage of the substrate (dimensionless); higher = more cleavage of the substrate by the protease variant
# Conditions: temperature: 34 °C; time window: 0-4 h after rhamnose induction
# 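Further: Bxb1 expression induced with 0.2% (w/v) L-rhamnose at OD600 near 0.5, cultures sampled hourly, flipped fraction per protease–substrate barcode pair counted by paired-end Illumina sequencing.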
Variant,area with substrate DNLYFQS,area with substrate LNLYFQS,area with substrate MNLYFQS,area with substrate HNLYFQS,area with substrate INLYFQS,area with substrate PNLYFQS,area with substrate SNLYFQS,area with substrate TNLYFQS,area with substrate WNLYFQS,area with substrate GNLYFQS
V200S,0.0476,0.0572,0.0592,–,–,–,–,–,–,–
V200W,0.0592,0.0628,0.0564,0.0611,0.0547,0.0499,0.0646,0.056,0.0624,–
K216Q,0.0831,–,–,0.0633,–,0.0909,–,–,–,0.0593
E224H,0.0581,–,–,0.0621,–,–,0.0809,0.0639,0.0515,0.0646
E224W,0.0742,0.0763,0.0545,0.0609,0.0616,0.0767,0.0573,0.0726,0.0597,0.0604
A232K,0.111,0.0695,–,–,–,–,0.0709,0.0541,–,0.0958
P96L,–,–,–,0.0604,–,0.07,0.0394,–,0.0524,–
C152K,–,0.0342,–,–,0.0531,0.0549,–,0.0524,0.0562,–
C152M,–,0.0693,–,0.0509,–,–,–,0.0538,–,–
H168A,–,–,–,–,–,–,0.047,–,–,–
H168Y,–,0.0574,0.0621,0.0721,0.0601,0.0604,0.0608,–,0.0577,0.0538
A232W,–,–,–,–,0.0621,–,0.0601,–,–,–
T72H,–,0.0675,0.0539,0.0793,0.0672,0.0653,0.0653,0.0609,0.0728,0.0542
D208N,–,0.0685,–,0.0601,–,–,0.0617,–,0.0596,0.0613
D208S,–,–,–,0.0569,0.0506,0.0633,–,0.0773,–,0.0761
G8A,–,–,–,0.0665,–,–,0.0764,–,0.0579,–
S16H,–,0.0771,0.0627,0.0631,0.0526,0.0755,0.0804,0.0676,0.056,–
V64T,–,0.0419,0.0743,0.0803,0.0665,0.0695,–,–,–,–
P96S,–,0.0732,0.0637,0.0655,0.0825,0.0476,–,0.0787,0.0717,–
P96Y,–,0.0634,–,0.065,–,0.0748,0.0684,–,0.055,–
D128E,–,0.0855,0.0907,0.0625,–,0.0735,–,0.068,0.0725,–
V200A,–,–,–,0.0377,0.0569,0.0671,–,–,0.0629,–
M88H,–,0.0786,–,–,0.0387,–,–,–,–,–
V200L,–,0.0839,–,–,0.0716,0.0406,0.0569,–,0.0709,–
M88C,–,0.0602,–,–,–,–,0.0706,–,–,–
V200I,–,–,–,–,–,0.0636,–,–,–,–
K216D,–,–,–,–,–,0.0819,–,–,0.0618,–
T192W,–,–,–,–,–,–,0.0636,–,–,–
A232V,–,–,–,–,–,–,0.0792,0.0731,0.0566,–
G8D,–,–,–,–,–,–,–,0.0816,–,–

# Same assay, conditions: temperature: 34 °C; time window: 0-4 h after rhamnose induction
Variant,area with substrate KNLYFQS,area with substrate NNLYFQS,area with substrate VNLYFQS,area with substrate YNLYFQS,area with substrate FNLYFQS,area with substrate QNLYFQS,area with substrate RNLYFQS
K216Q,0.0441,0.0607,0.0895,–,–,–,–
E224H,0.0497,–,–,0.0722,–,–,–
E224W,0.0624,0.0623,0.0723,–,0.0674,0.0692,0.0652
A232K,–,–,–,–,0.0634,–,–
P96L,–,–,–,–,0.0736,–,–
C152K,–,0.0489,–,0.0523,0.0711,0.0514,0.0615
C152M,0.0535,–,–,0.0482,0.0611,–,–
H168A,–,0.0696,–,–,0.0485,–,–
H168Y,0.0625,0.0615,0.0666,0.05,0.0538,–,–
A232W,0.074,–,–,0.0655,0.0782,–,–
T72H,0.0439,–,–,0.0759,–,–,–
D208N,0.0612,0.0737,–,0.0718,–,–,–
D208S,0.0481,0.0685,–,–,–,–,–
G8A,0.0672,–,0.0557,–,–,–,–
S16H,0.0577,0.0576,–,0.0731,–,0.0805,0.0662
V64T,0.0866,–,0.0596,0.0481,–,–,–
P96S,0.0993,–,–,–,–,–,–
P96Y,–,0.0543,0.0629,–,–,–,–
D128E,0.0596,–,0.0754,–,–,0.0712,–
M88H,–,0.027,–,–,–,–,0.0494
V200L,–,–,–,0.0297,–,–,–
M88C,0.065,–,–,–,–,–,–
V200I,–,–,–,0.0643,–,–,–
